This note sets out measurements from ChEMBL document CHEMBL4888484, “Replenishing the malaria drug discovery pipeline: Screening and hit evaluation of the MMV Hit Generation Library 1 (HGL1) against asexual blood stage Plasmodium falciparum ,using a nano luciferase reporter read-out” (2022).

Structures are written as SMILES. Among all 150,000 compounds or so, about 540 (0.36%) showed an effect of 50% or more. Some of the results follow.

This assay relates to Plasmodium falciparum. In words: Primary screen in NF54 nanoGlo assay, in single point, at 2uM, 72h; a lower Z score goes with more inhibition. It is filed as functional, Erythrocyte. The conditions noted are these: timepoint 72 hour.
As for `C[C@@H]1CN(c2ccnc3ccsc23)CC(C(N)=O)O1` (stereo partly specified), the “% Inhibition” value is 3% and the Z score is listed as -0.34.
For `CCN(CC)C(=O)NC[C@@H]1C[C@H](F)CN1C(=O)c1ccc(Cl)cc1O`, in that order: -5% and 0.83.
With `C[C@@H](C1CC1)n1nccc1NCc1ccc(OCC2CC2)cc1`, the “% Inhibition” value is reported as -11% and the Z score turned out to be 2.15.
For `O=C(Nc1ccc2c(c1)OCO2)[C@@H](c1ccccc1)N(Cc1ccccc1)c1ccccc1`, in that order: 5% and -0.71.
For `CCCN(C(=O)c1nn(C)c2ccccc2c1=O)C(C)C`, in that order: -11% and 1.38.
Turning to `CCc1nsc(N2CCCC3C(NC(=O)C(C)(F)F)C(C)(C)C32)n1` (stereo unspecified), the “% Inhibition” value worked out at 16% and the Z score is recorded as -2.01.
As for `CN1CCN(CCN(Cc2ccc(Br)cc2F)C(=O)[C@H]2CCOC2)CC1`, the “% Inhibition” value is -7% and the Z score is given as 0.6.
For `CCCCCOC(=O)Nc1nnc(C)s1`, in that order: -21% and 2.77.
For the molecule `CN(C[C@H]1CCCCO1)C(=O)c1ccc(CN2CCc3ccccc3C2)o1`, the “% Inhibition” value is reported as -8% and the Z score is on record as 1.57.
For `Cc1nccn1CC1(CNC(=O)c2ccc3c(=O)n(C)cnc3c2)CC1`, in that order: 0% and -0.07.
For `C[C@@H](CNC(=O)c1ccc(C(F)F)c(F)c1)S(N)(=O)=O`, in that order: -15% and 1.61.
In the case of `O=S(=O)(c1cccs1)N1CCC(Oc2ncnc3c2CCOCC3)CC1`, the “% Inhibition” value is -5% and the Z score is 0.81.
For `CC(C)c1ccccc1S(=O)(=O)NCC(=O)NC(C)(C)C`, the “% Inhibition” value was -1% and the Z score is on record as 0.12.
For `COc1ccc(CC(C)CNC(=O)N(C)C2CCN(C)CC2C)cc1` (stereo unspecified), in that order: 10% and -0.94.
For `O=C(Nc1ccc(CCN2CCC(O)CC2)cc1)c1ccc(F)cc1` the same measures were -15% and 1.49.
For `CN(Cc1cccs1)C(=O)Cn1cnc2c1CCNC21CCOCC1` the same measures were -5% and 0.79.
As for `Cc1n[nH]c(C)c1CCNc1cc([C@H]2C[C@H](N)C2)nc(C2CC2)n1`, the “% Inhibition” value is on record as 3% and the Z score is reported as -0.48.
`CN1CC2(CCN(C(=O)c3ccoc3)CC2)C[C@@H](c2ccccc2)C1=O`: the “% Inhibition” value is -2% and the Z score worked out at 0.44.
For `CCOc1ccccc1-c1cc(-c2c(C)nn(C)c2C)nc(CC(=O)NC)n1`, the “% Inhibition” value is on record as -6% and the Z score is reported as 0.81.
For `COc1cc2c(cc1OC)CN(C(=O)c1cccc(NS(=O)(=O)c3cccc(Cl)c3)c1)CC2` the same measures were -9% and 1.24.
For `O=C(Nc1ccc(-c2ccccc2C(F)(F)F)s1)C(F)(F)F`, in that order: -36% and 4.24.
For `O=S1(=O)CCC[C@H](CNc2cccc3c2OCO3)C1`, in that order: -3% and 0.29.
Regarding `CCCN(C[C@H]1CCOC1)C(=O)NC`, the “% Inhibition” value is -3% and the Z score amounted to 0.42.
